The other results are listed elsewhere or left out.
Experiments:
Assay in all cases: glycan array binding signal (z-score within array); higher = stronger binding
Settings in all cases: glycan notation: IUPAC condensed, linker removed
Gal(a1-6)Glc = molecular target: Gal(a1-6)Glc
In short: (§1)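 Arrays were curated from the Consortium for Functional Glycomics database, 3228 in total, and kept only where the protein sequence was available. Binding is expressed as a within-array Z-score. This score was averaged across arrays of the same protein sequence at different concentrations or buffers and across linkers, and negative values can be read as non-binding.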

Gal(b1-2)Gal = molecular target: Gal(b1-2)Gal
In short: as §1

Gal(b1-3)Gal = molecular target: Gal(b1-3)Gal
In short: as §1

Gal(b1-3)Gal(b1-4)GlcNAc = molecular target: Gal(b1-3)Gal(b1-4)GlcNAc
In short: as §1

Gal(b1-3)GalNAc = molecular target: Gal(b1-3)GalNAc
In short: as §1

[1] = molecular target: Gal(b1-3)GalNAc(a1-3)[Fuc(a1-2)]Gal(b1-4)Glc
In short: as §1

[2] = molecular target: Gal(b1-3)GalNAc(a1-3)[Fuc(a1-2)]Gal(b1-4)GlcNAc
In short: as §1

Gal(b1-3)GalNAc(b1-3)Gal = molecular target: Gal(b1-3)GalNAc(b1-3)Gal
In short: as §1

[3] = molecular target: Gal(b1-3)GalNAc(b1-3)Gal(a1-4)Gal(b1-4)Glc
In short: as §1

[4] = molecular target: Gal(b1-3)GalNAc(b1-4)Gal(b1-4)Glc
In short: as §1

[5] = molecular target: Gal(b1-3)GalNAc(b1-4)[Neu5Ac(a2-3)]Gal(b1-4)Glc
In short: as §1

Gal(b1-3)GlcNAc = molecular target: Gal(b1-3)GlcNAc
In short: as §1

[6] = molecular target: Gal(b1-3)GlcNAc(a1-3)Gal(b1-4)GlcNAc
In short: as §1

[7] = molecular target: Gal(b1-3)GlcNAc(a1-6)Gal(b1-4)GlcNAc
In short: as §1

Gal(b1-3)GlcNAc(b1-2)Man = molecular target: Gal(b1-3)GlcNAc(b1-2)Man
In short: as §1

[8] = molecular target: Gal(b1-3)GlcNAc(b1-2)Man(a1-3)[Gal(b1-3)GlcNAc(b1-2)Man(a1-6)]Man(b1-4)GlcNAc(b1-4)GlcNAc
In short: as §1

[9] = molecular target: Gal(b1-3)GlcNAc(b1-2)Man(a1-3)[Gal(b1-3)GlcNAc(b1-2)Man(a1-6)]Man(b1-4)GlcNAc(b1-4)[Fuc(a1-6)]GlcNAc
In short: as §1

[10] = molecular target: Gal(b1-3)GlcNAc(b1-2)Man(a1-3)[GlcNAc(b1-4)][Gal(b1-3)GlcNAc(b1-2)Man(a1-6)]Man(b1-4)GlcNAc(b1-4)GlcNAc
In short: as §1

[11] = molecular target: Gal(b1-3)GlcNAc(b1-2)[Gal(b1-3)GlcNAc(b1-6)]Man(a1-6)[Gal(b1-3)GlcNAc(b1-2)Man(a1-3)]Man(b1-4)GlcNAc(b1-4)GlcNAc
In short: as §1

[12] = molecular target: Gal(b1-3)GlcNAc(b1-3)Gal(b1-3)GlcNAc
In short: as §1

[13] = molecular target: Gal(b1-3)GlcNAc(b1-3)Gal(b1-4)Glc
In short: as §1

[14] = molecular target: Gal(b1-3)GlcNAc(b1-3)Gal(b1-4)GlcNAc
In short: as §1

[15] = molecular target: Gal(b1-3)GlcNAc(b1-3)Gal(b1-4)GlcNAc(b1-2)Man(a1-3)[Gal(b1-3)GlcNAc(b1-3)Gal(b1-4)GlcNAc(b1-2)Man(a1-6)]Man(b1-4)GlcNAc(b1-4)GlcNAc
In short: as §1

[16] = molecular target: Gal(b1-3)GlcNAc(b1-3)Gal(b1-4)GlcNAc(b1-2)[Gal(b1-3)GlcNAc(b1-3)Gal(b1-4)GlcNAc(b1-6)]Man(a1-6)[Gal(b1-3)GlcNAc(b1-3)Gal(b1-4)GlcNAc(b1-2)Man(a1-3)]Man(b1-4)GlcNAc(b1-4)[Fuc(a1-6)]GlcNAc
In short: as §1

[17] = molecular target: Gal(b1-3)GlcNAc(b1-3)Gal(b1-4)GlcNAc(b1-3)Gal(b1-4)GlcNAc(b1-2)[Gal(b1-3)GlcNAc(b1-3)Gal(b1-4)GlcNAc(b1-3)Gal(b1-4)GlcNAc(b1-6)]Man(a1-6)[Gal(b1-3)GlcNAc(b1-3)Gal(b1-4)GlcNAc(b1-3)Gal(b1-4)GlcNAc(b1-2)Man(a1-3)]Man(b1-4)GlcNAc(b1-4)[Fuc(a1-6)]GlcNAc
In short: as §1

[18] = molecular target: Gal(b1-3)GlcNAc(b1-3)Gal(b1-4)GlcNAc(b1-6)[Gal(b1-3)GlcNAc(b1-3)]Gal(b1-4)Glc
In short: as §1

[19] = molecular target: Gal(b1-3)GlcNAc(b1-3)Gal(b1-4)[Fuc(a1-3)]GlcNAc
In short: as §1

[20] = molecular target: Gal(b1-3)GlcNAc(b1-3)Gal(b1-4)[Fuc(a1-3)]GlcNAc(b1-6)[Gal(b1-3)GlcNAc(b1-3)]Gal(b1-4)Glc
In short: as §1

[21] = molecular target: Gal(b1-3)GlcNAc(b1-3)GalNAc
In short: as §1

[22] = molecular target: Gal(b1-3)GlcNAc(b1-6)Gal(b1-4)GlcNAc
In short: as §1

[23] = molecular target: Gal(b1-3)GlcNAc(b1-6)GalNAc
In short: as §1

[24] = molecular target: Gal(b1-3)GlcNAc(b1-6)[Gal(b1-3)]GalNAc
In short: as §1

Gal(b1-3)GlcNAc6S = molecular target: Gal(b1-3)GlcNAc6S
In short: as §1

[25] = molecular target: Gal(b1-3)[Fuc(a1-4)]GlcNAc
In short: as §1

[26] = molecular target: Gal(b1-3)[Fuc(a1-4)]GlcNAc(b1-2)Man
In short: as §1

[27] = molecular target: Gal(b1-3)[Fuc(a1-4)]GlcNAc(b1-2)Man(a1-3)[Gal(b1-3)[Fuc(a1-4)]GlcNAc(b1-2)Man(a1-6)]Man(b1-4)GlcNAc(b1-4)[Fuc(a1-6)]GlcNAc
In short: as §1

[28] = molecular target: Gal(b1-3)[Fuc(a1-4)]GlcNAc(b1-3)Gal(b1-3)[Fuc(a1-4)]GlcNAc
In short: as §1

[29] = molecular target: Gal(b1-3)[Fuc(a1-4)]GlcNAc(b1-3)Gal(b1-4)[Fuc(a1-3)]GlcNAc
In short: as §1

[30] = molecular target: Gal(b1-3)[Fuc(a1-4)]GlcNAc(b1-6)GalNAc
In short: as §1

[31] = molecular target: Gal(b1-3)[GlcNAc(b1-6)]GalNAc
In short: as §1

[32] = molecular target: Gal(b1-3)[Neu5Ac(a2-6)]GalNAc
In short: as §1

[33] = molecular target: Gal(b1-3)[Neu5Ac(a2-6)]GlcNAc(b1-4)Gal(b1-4)Glc
In short: as §1

[34] = molecular target: Gal(b1-3)[Neu5Ac(b2-6)]GalNAc
In short: as §1

Gal(b1-4)Gal = molecular target: Gal(b1-4)Gal
In short: as §1

[35] = molecular target: Gal(b1-4)GalNAc(a1-3)[Fuc(a1-2)]Gal(b1-4)GlcNAc
In short: as §1

B1: Banana lectin (Musa acuminata) (protein)
chain: MNGAIKVGAWGGNGGSAFDMGPAYRIISVKIFSGDVVDAVDVTFTYYGKTETRHFGGSGGTPHEIVLQEGEYLVGMKGEFGNYHGVVVVGKLGFSTNKKSYGPFGNTGGTPFSLPIAAGKISGFFGRGGDFIDAIGVYLEP
- glycan array binding signal (z-score) (Gal(a1-6)Glc): -0.203
- glycan array binding signal (z-score) (Gal(b1-2)Gal): -0.202
- glycan array binding signal (z-score) (Gal(b1-3)Gal): -0.195
- glycan array binding signal (z-score) (Gal(b1-3)Gal(b1-4)GlcNAc): -0.194
- glycan array binding signal (z-score) (Gal(b1-3)GalNAc): -0.194
- glycan array binding signal (z-score) [1]: -0.194
- glycan array binding signal (z-score) [2]: -0.195
- glycan array binding signal (z-score) (Gal(b1-3)GalNAc(b1-3)Gal): -0.195
- glycan array binding signal (z-score) [3]: -0.192
- glycan array binding signal (z-score) [4]: -0.193
- glycan array binding signal (z-score) [5]: -0.195
- glycan array binding signal (z-score) (Gal(b1-3)GlcNAc): -0.193
- glycan array binding signal (z-score) [6]: 3.21
- glycan array binding signal (z-score) [7]: -0.163
- glycan array binding signal (z-score) (Gal(b1-3)GlcNAc(b1-2)Man): -0.191
- glycan array binding signal (z-score) [8]: 0.348
- glycan array binding signal (z-score) [9]: -0.058
- glycan array binding signal (z-score) [10]: 0.288
- glycan array binding signal (z-score) [11]: 0.108
- glycan array binding signal (z-score) [12]: -0.192
- glycan array binding signal (z-score) [13]: -0.193
- glycan array binding signal (z-score) [14]: -0.193
- glycan array binding signal (z-score) [15]: -0.059
- glycan array binding signal (z-score) [16]: 0.334
- glycan array binding signal (z-score) [17]: 0.323
- glycan array binding signal (z-score) [18]: -0.193
- glycan array binding signal (z-score) [19]: -0.195
- glycan array binding signal (z-score) [20]: -0.194
- glycan array binding signal (z-score) [21]: -0.195
- glycan array binding signal (z-score) [22]: -0.194
- glycan array binding signal (z-score) [23]: -0.193
- glycan array binding signal (z-score) [24]: -0.173
- glycan array binding signal (z-score) (Gal(b1-3)GlcNAc6S): -0.193
- glycan array binding signal (z-score) [25]: -0.195
- glycan array binding signal (z-score) [26]: -0.19
- glycan array binding signal (z-score) [27]: 0.897
- glycan array binding signal (z-score) [28]: -0.184
- glycan array binding signal (z-score) [29]: -0.201
- glycan array binding signal (z-score) [30]: -0.19
- glycan array binding signal (z-score) [31]: -0.192
- glycan array binding signal (z-score) [32]: -0.193
- glycan array binding signal (z-score) [33]: -0.194
- glycan array binding signal (z-score) [34]: -0.193
- glycan array binding signal (z-score) (Gal(b1-4)Gal): -0.194
- glycan array binding signal (z-score) [35]: -0.193

— the supplement of paper PMC8728848
